Measurements published in patent US20250136594A1 (Tango Therapeutics, Inc., priority 2022, published 2025).

Columns and labels:
[1] = system: SDMA in HAP1 MTAP-deleted (MTAP-null) cell line (PRMT5 inhibition); test: SDMA in-cell western assay, HAP1 MTAP-deleted cell line; settings: for pIC50 / IC90: Homo sapiens; for pIC50: HAP1, read-out: Hap1 MTAP deleted IC50; for IC90: HAP1, read-out: Hap1 MTAP deleted IC90; for Hap1 MTAP intact/deleted ratio: ratio of SDMA IC50 in HAP1 MTAP-intact to HAP1 MTAP-deleted cell line
[2] = system: HAP1 MTAP-deleted cell line; test: Viability assay, HAP1 MTAP-deleted cell line; format: cell-based; settings: Homo sapiens
[3] = system: SDMA in HAP1 MTAP-intact cell line (PRMT5 inhibition); test: SDMA in-cell western assay, HAP1 MTAP-intact cell line; settings: Homo sapiens, HAP1, read-out: Hap1 MTAP intact IC50
[4] = viability assay, HAP1 MTAP-deleted cell line, read-out: Hap1 MTAP deleted viability IC50
[5] = HAP1, read-out: Hap1 MTAP deleted viability IC50

SMILES	pIC50 [1]	IC90 [1] [nM]	pIC50 [3]	Hap1 MTAP intact/deleted ratio [1]	pIC50 [2, 4]	pIC50 [2, 5]
C[C@@H](c1ccc(C(F)(F)F)cc1)N(C)C(=O)C(=O)Nc1cnc(N)c2cn[nH]c12 [Compound 53, (S)—N^1-(4-amino-1H-pyrazolo[4,3-c]pyridin-7-yl)-N^2-methyl-N^2-(1-(4-(trifluoromethyl)phenyl)ethyl)oxalamide]	–	–	–	–	–	6.00 to 7.00
CC(c1ccc(C(F)(F)C(F)(F)F)cc1)N(C)C(=O)C(=O)Nc1cnc(N)c2cn[nH]c12 (centres unmarked) [Compound 123, N-(4-amino-1H-pyrazolo[4,3-c]pyridin-7-yl)-N′-methyl-N′-[1-[4-(1,1,2,2,2-pentafluoroethyl)phenyl]ethyl]oxamide]	> 8.30	< 75	7.30 to 8.30	B (IC50 ratio greater than or equal to 15 fold but lower than 30 fold)	> 7.00	–
CC(=O)Nc1cccc(CN(Cc2ccccc2)C(=O)C(=O)Nc2cnc(N)c3cn[nH]c23)c1 [Compound 161, N′-[(3-acetamidophenyl)methyl]-N-(4-amino-1H-pyrazolo[4,3-c]pyridin-7-yl)-N′-benzyl-oxamide]	> 8.30	< 75	< 7.30	A (IC50 ratio greater than or equal to 30 fold)	> 7.00	–
CCN(C(=O)C(=O)Nc1cnc(N)c2cn[nH]c12)[C@H](C)c1ccc(C(F)(F)F)cc1F [Compound 126, N-(4-Amino-1H-pyrazolo[4,3-c]pyridin-7-yl)-N′-ethyl-N′—[(1R)-1-[2-fluoro-4-(trifluoromethyl)phenyl]ethyl]oxamide]	> 8.30	< 75	7.30 to 8.30	B (IC50 ratio greater than or equal to 15 fold but lower than 30 fold)	> 7.00	–
CCN(C(=O)C(=O)Nc1cnc(N)c2cn[nH]c12)C(C)c1ccc(S(F)(F)(F)(F)F)cc1 (centres unmarked) [Compound 140, N-(4-amino-1H-pyrazolo[4,3-c]pyridin-7-yl)-N′-ethyl-N′-[1-[4-(pentafluoro-sulfanyl)phenyl]ethyl]oxamide]	> 8.30	< 75	7.30 to 8.30	C (IC50 ratio of less than 15 fold)	> 7.00	–
Nc1ncc(NC(=O)C(=O)N(Cc2ccccc2)Cc2ccc(F)cc2)c2[nH]ncc12 [Compound 38, N-(4-amino-1H-pyrazolo[4,3-c]pyridin-7-yl)-N′-benzyl-N′-[(4-fluorophenyl)methyl]oxamide]	> 8.30	< 75	< 7.30	A (IC50 ratio greater than or equal to 30 fold)	> 7.00	–
Cc1cc(NC(=O)C(=O)N(Cc2ccc(C(F)(F)F)cn2)[C@@H]2CCc3ccccc32)cnc1N [Compound 1, (R)—N^1-(6-amino-5-methylpyridin-3-yl)-N^2-(2,3-dihydro-1H-inden-1-yl)-N^2-((5-(trifluoromethyl)pyridin-2-yl)methyl)oxalamide]	> 8.30	< 75	7.30 to 8.30	C (IC50 ratio of less than 15 fold)	> 7.00	–
C[C@H](c1ccc(C(F)(F)F)cc1F)N(C)C(=O)C(=O)Nc1cnc(N)c2c1CO[C@@H]2C [Compound 197]	–	–	–	–	< 6.00	–
CCN(C(=O)C(=O)Nc1cnc(N)c2cn[nH]c12)[C@@H](C)c1ccc(C(F)(F)F)cc1F [Compound 153, N-(4-Amino-1H-pyrazolo[4,3-c]pyridin-7-yl)-N′-ethyl-N′—[(1S)-1-[2-fluoro-4-(trifluoromethyl)phenyl]ethyl]oxamide]	7.30 to 8.30	> 125	< 7.30	A (IC50 ratio greater than or equal to 30 fold)	6.00 to 7.00	–
C[C@H](c1ccc(C(F)(F)F)cc1)N(C)C(=O)C(=O)Nc1cnc(N)c2cn[nH]c12 [Compound 78, (R)—N^1-(4-amino-1H-pyrazolo[4,3-c]pyridin-7-yl)-N^2-methyl-N^2-(1-(4-(trifluoromethyl)phenyl)ethyl)oxalamide]	–	–	–	–	–	> 7.00
Nc1ncc(NC(=O)C(=O)N(Cc2ccc(F)cc2)Cc2ccc(F)cc2)c2[nH]ncc12 [Compound 44]	> 8.30	< 75	< 7.30	A (IC50 ratio greater than or equal to 30 fold)	–	–
C[C@H](c1ccccc1F)N(C)C(=O)C(=O)Nc1cnc(N)c2cn[nH]c12 [Compound 162, (R)—N^1-(4-amino-1H-pyrazolo[4,3-c]pyridin-7-yl)-N^2-(1-(2-fluorophenyl)ethyl)-N^2-methyloxalamide]	–	–	< 7.30	–	–	6.00 to 7.00
CC(c1ccc(C(F)(F)F)cc1)N(C)C(=O)C(=O)Nc1cnc(N)c2cn[nH]c12 (racemic) [Compound 85, rac-N^1-(4-amino-1H-pyrazolo[4,3-c]pyridin-7-yl)-N^2-methyl-N^2-(1-(4-(trifluoromethyl)phenyl)ethyl)oxalamide]	–	–	–	–	–	> 7.00
C[C@@H]1OCc2c(NC(=O)C(=O)N(C)[C@H](C)c3ccc(C(F)(F)F)cc3F)cnc(N)c21 (single isomer, unassigned) [Compound 196]	–	–	–	–	6.00 to 7.00	–

More lines, main results first:

pIC50 [1]	IC90 [1] [nM]	pIC50 [3]	SMILES	Hap1 MTAP intact/deleted ratio [1]	pIC50 [2, 4]	pIC50 [2, 5]
> 8.30	< 75	< 7.30	CC(C)CN(C(=O)C(=O)Nc1cnc(N)c2cn[nH]c12)[C@H](C)c1ccccc1 [Compound 129, (R)—N^1-(4-amino-1H-pyrazolo[4,3-c]pyridin-7-yl)-N^2-isobutyl-N^2-(1-phenylethyl)oxalamide]	A (IC50 ratio greater than or equal to 30 fold)	> 7.00	–
> 8.30	< 75	< 7.30	Cc1cc(C(F)(F)C(F)(F)F)ccc1CN(C)C(=O)C(=O)Nc1cnc(N)c2cn[nH]c12 [Compound 184, N-(4-Amino-1H-pyrazolo[4,3-c]pyridin-7-yl)-N′-methyl-N′-[[2-methyl-4-(1,1,2,2,2-pentafluoroethyl)phenyl]methyl]oxamide]	A (IC50 ratio greater than or equal to 30 fold)	> 7.00	–
> 8.30	< 75	< 7.30	CC(c1ccc(F)cc1)N(C(=O)C(=O)Nc1cnc(N)c2cn[nH]c12)C(C)c1ccc(F)cc1 (centres unmarked) [Compound 112, N-(4-amino-1H-pyrazolo[4,3-c]pyridin-7-yl)-N′,N′-bis [1-(4-fluorophenyl)ethyl]oxamide]	B (IC50 ratio greater than or equal to 15 fold but lower than 30 fold)	> 7.00	–
> 8.30	> 125	< 7.30	COc1ncc(NC(=O)C(=O)N(Cc2ccc(C(F)(F)F)cn2)CC(C)C2CC2)cc1C(N)=O (centres unmarked) [Compound 47, N-(5-carbamoyl-6-methoxy-3-pyridyl)-N′-(2-cyclopropylpropyl)-N′-[[5-(trifluoromethyl)-2-pyridyl]methyl]oxamide]	A (IC50 ratio greater than or equal to 30 fold)	6.00 to 7.00	–
7.30 to 8.30	> 125	7.30 to 8.30	COC[C@H](C1CC1)N(Cc1ccc(C(F)(F)F)cn1)C(=O)C(=O)Nc1cnc(N)c(C)c1 [Compound 24, (S)—N^1-(6-amino-5-methylpyridin-3-yl)-N^2-(1-cyclopropyl-2-methoxyethyl)-N^2-((5-(trifluoromethyl)pyridin-2-yl)methyl)oxalamide]	C (IC50 ratio of less than 15 fold)	> 7.00	–
> 8.30	> 125	< 7.30	CN(Cc1ccccc1-c1ccccc1)C(=O)C(=O)Nc1cnc(N)c2cn[nH]c12 [Compound 164, N-(4-amino-2H-pyrazolo[4,3-c]pyridin-7-yl)-N′-methyl-N′-[(2-phenylphenyl)methyl]oxamide]	A (IC50 ratio greater than or equal to 30 fold)	6.00 to 7.00	–
> 8.30	< 75	< 7.30	C[C@H](c1ccc(C(F)(F)F)cc1)N(C)C(=O)C(=O)Nc1cnc(N)c2c1cnn2C [Compound 80, N-(7-Amino-1-methyl-pyrazolo[3,4-c]pyridin-4-yl)-N′-methyl-N′—[(1R)-1-[4-(trifluoromethyl)phenyl]ethyl]oxamide]	A (IC50 ratio greater than or equal to 30 fold)	> 7.00	–
–	–	< 7.30	C[C@H](c1ccc(F)cc1)N(C)C(=O)C(=O)Nc1cnc(N)c2cn[nH]c12 [Compound 144, (R)—N^1-(4-amino-1H-pyrazolo[4,3-c]pyridin-7-yl)-N^2-(1-(4-fluorophenyl)ethyl)-N^2-methyloxalamide]	–	–	> 7.00
> 8.30	< 75	7.30 to 8.30	Nc1ncc(NC(=O)C(=O)N(Cc2ccccc2)Cc2cccc3ccccc23)c2[nH]ncc12 [Compound 122, N-(4-amino-1H-pyrazolo[4,3-c]pyridin-7-yl)-N′-benzyl-N′-(1-naphthylmethyl)oxamide]	B (IC50 ratio greater than or equal to 15 fold but lower than 30 fold)	> 7.00	–
7.30 to 8.30	–	< 7.30	Nc1ncc(NC(=O)C(=O)N(Cc2ccc(C(F)(F)F)cn2)[C@@H]2CCc3ccccc32)cc1C1CC1 [Compound 23, (R)—N^1-(6-amino-5-cyclopropylpyridin-3-yl)-N^2-(2,3-dihydro-1H-inden-1-yl)-N^2-((5-(trifluoromethyl)pyridin-2-yl)methyl)oxalamide]	A (IC50 ratio greater than or equal to 30 fold)	> 7.00	–

pIC50: −log10 of the molar value. Where two headings read alike, the source gives them in different places.
